Results on five molecules are retold here after US9234216B2, “Variant CBH I polypeptides” (BP Corporation North America Inc., priority 2011, dated 2016).

Some results are limits rather than exact numbers.

A short description of data set [1]: Melting temperature by Differential Scanning calorimetry. In kind it is physicochemical. The settings on record: DSC, 500-700 μg/mL degassed sample. On the procedure: (§1) Calculations for % residual activity: % Residual Activity=Activity heat challenged sample/Activity non-challenged sample (22 C). All residual activities calculated indepentyl from parent residual activity Melting Temperatures were determined by Differential Scanning calorimetry, using 500-700 μg/mL of degassed sample.

The nature of data set [2]: Cellobiose inhibition with 0.1% phosphoric acid swollen cellulose (PASC) and Calcofluor. The data set is classed as biochemical. The settings on record: inhibition of the CBHI by cellobiose, 0.1% PASC, Calcofluor, 2 hours at 35° C. On the procedure:
(§2) The parent (wild-type) CBHI (SEQ ID NO:134, encoded by SEQ ID NO:133) and variant CBHI (SEQ ID NO:136, encoded by SEQ ID NO:135) were assayed to determine their cellobiose (product) inhibition.
In another assay, cellobiose inhibition was measured using 0.1% phosphoric acid swollen cellulose (PASC) as the substrate. CBHI was incubated with PASC and Calcofluor (which intercalates between cellulose strands and fluoresces upon binding to cellulose) for 2 hours at 35° C. IC50 was measured.

Data set [3] can be described thus: Cellobiose (product) inhibition with methylumbelliferyl lactoside (MUL) as substrate. The data set is classed as biochemical. The settings on record: inhibition of the CBHI by cellobiose. On the procedure:
as §2
In one assy, cellobiose inhibition was measured using methylumbelliferyl lactoside (MUL) as the substrate. IC50, the half maximal inhibitory concentration of cellobiose, was determined.

A short description of data set [4]: Cellobiose inhibition in saccharification assays using bagasse. In kind it is biochemical. As to conditions: for CBHI activity decrease: 5% w/v pretreated bagasse, 4 mg/g CBHI, 35° C. How it is done: as §2
In another assay, cellobiose inhibition was measured in saccharification assays using bagasse (12% solids in 200 mM MES buffer, pH 6) as the substrate. 5% w/v pretreated bagasse was incubated with 4 mg/g of CBHI at 35° C. at 20 RPM in hybridization ovens.

Data set [5] is described as follows: Saccharification of pretreated bagasse by CBHI variants in a cocktail with CBHII and EG. In kind it is biochemical. As to conditions: Table 2; 5% w/v pretreated bagasse, 35° C., pH5.2, CBHI 4 mg/g cellulose; (% conversion of variant − % conversion of wt)/% conversion of wt.
A short description of data set [6]: Thermotolerance: residual activity on MUL after 20 minute heat challenge. In kind it is biochemical. The settings on record: residual activity on MUL at 22 C vs non-challenged sample; for % Residual Activity @ 60° C.: heat challenge 20 minutes at 60 C; for % Residual Activity @ 65° C.: heat challenge 20 minutes at 65 C; for % Residual Activity @ 70° C.: heat challenge 20 minutes at 70 C; for % Residual Activity @ 75° C.: heat challenge 20 minutes at 75 C; for % Residual Activity @ 80° C.: heat challenge 20 minutes at 80 C. How it is done: Samples heat challenged at 22 C, 60 C, 65 C, 70 C, 75 C, and 80 C for 20 minutes. After heat challenge, samples cooled on ice. Residual activity determined on MUL at 22 C.
as §1

The mark [7] stands for this setting: 72 hours, when beta-glucosidase was added (so in the source).

B1: SEQ ID NO:134: wild type BD29555 CBH I (cellobiohydrolase I), parent of the variants (protein)
chain: MSALNSFNMYKSALILGSLLATAGAQQIGTYTAETHPSLSWSTCKSGGSCTTNSGAITLDANWRWVHGVNTSTNCYTGNTWNTAICDTDASCAQDCALDGADYSGTYGITTSGNSLRLNFVTGSNVGSRTYLMADNTHYQIFDLLNQEFTFTVDVSHLPCGLNGALYFVTMDADGGVSKYPNNKAGAQYGVGYCDSQCPRDLKFIAGQANVEGWTPSSNNANTGLGNHGACCAELDIWEANSISEALTPHPCDTPGLSVCTTDACGGTYSSDRYAGTCDPDGCDFNPYRLGVTDFYGSGKTVDTTKPITVVTQFVTDDGTSTGTLSEIRRYYVQNGVVIPQPSSKISGVSGNVINSDFCDAEISTFGETASFSKHGGLAKMGAGMEAGMVLVMSLWDDYSVNMLWLDSTYPTNATGTPGAARGSCPTTSGDPKTVESQSGSSYVTFSDIRVGPFNSTFSGGSSTGGSSTTTASGTTTTKASSTSTSSTSTGTGVAAHWGQCGGQGWTGPTTCASGTTCTVVNPYYSQCL
modifications: /note=“Description of Unknown Wildtype cellobiohydrolase polypeptide”
As to B1, the “Melting Temperature” value in data set [1] stood at 69.5 °C. In data set [2], the IC50 of cellobiose is 2200 µg/mL. Besides, in data set [3], the “IC50, the half maximal inhibitory concentration of cellobiose” value came out at 60 µg/mL. Also, the CBHI activity decrease in data set [4] (48 hours, when no beta-glucosidase was added) was 60%. The CBHI activity decrease in data set [4] (setting [7]) was 50%. Further, the “activity on bagasse, wild type compared with mutant” value in data set [4] (saccharification of bagasse) is given as “higher than that of the CBHI mutant”. Also, in data set [5], the “% improvement over WT @ 48 hr” value came to 0.0%. Besides, in data set [6], the “% Residual Activity @ 60° C.” value is reported as 83%, the “% Residual Activity @ 65° C.” value came to 26%, the “% Residual Activity @ 70° C.” value was 18% and the “% Residual Activity @ 75° C.” value is 31%. In data set [6], the “% Residual Activity @ 80° C.” value is 43%.

B2: SEQ ID 61, 62: BD29555 CBH I variant: S104N (Table A prints it under SEQ ID NO 60) (protein)
chain: MSALNSFNMYKSALILGSLLATAGAQQIGTYTAETHPSLSWSTCKSGGSCTTNSGAITLDANWRWVHGVNTSTNCYTGNTWNTAICDTDASCAQDCALDGADYNGTYGITTSGNSLRLNFVTGSNVGSRTYLMADNTHYQIFDLLNQEFTFTVDVSHLPCGLNGALYFVTMDADGGVSKYPNNKAGAQYGVGYCDSQCPRDLKFIAGQANVEGWTPSSNNANTGLGNHGACCAELDIWEANSISEALTPHPCDTPGLSVCTTDACGGTYSSDRYAGTCDPDGCDFNPYRLGVTDFYGSGKTVDTTKPITVVTQFVTDDGTSTGTLSEIRRYYVQNGVVIPQPSSKISGVSGNVINSDFCDAEISTFGETASFSKHGGLAKMGAGMEAGMVLVMSLWDDYSVNMLWLDSTYPTNATGTPGAARGSCPTTSGDPKTVESQSGSSYVTFSDIRVGPFNSTFSGGSSTGGSSTTTASGTTTTKASSTSTSSTSTGTGVAAHWGQCGGQGWTGPTTCASGTTCTVVNPYYSQCL
Consider B2, for which, in data set [1], the “Melting Temperature” value worked out at 71.1 °C. In data set [6], the “% Residual Activity @ 60° C.” value is reported as 97%, the “% Residual Activity @ 65° C.” value is 87%, the “% Residual Activity @ 70° C.” value is 46% and the “% Residual Activity @ 75° C.” value worked out at 54%. The “% Residual Activity @ 80° C.” value in data set [6] is listed as 56%.

B3: SEQ ID 63, 64: BD29555 CBH I variant: V121S (protein)
chain: MSALNSFNMYKSALILGSLLATAGAQQIGTYTAETHPSLSWSTCKSGGSCTTNSGAITLDANWRWVHGVNTSTNCYTGNTWNTAICDTDASCAQDCALDGADYSGTYGITTSGNSLRLNFSTGSNVGSRTYLMADNTHYQIFDLLNQEFTFTVDVSHLPCGLNGALYFVTMDADGGVSKYPNNKAGAQYGVGYCDSQCPRDLKFIAGQANVEGWTPSSNNANTGLGNHGACCAELDIWEANSISEALTPHPCDTPGLSVCTTDACGGTYSSDRYAGTCDPDGCDFNPYRLGVTDFYGSGKTVDTTKPITVVTQFVTDDGTSTGTLSEIRRYYVQNGVVIPQPSSKISGVSGNVINSDFCDAEISTFGETASFSKHGGLAKMGAGMEAGMVLVMSLWDDYSVNMLWLDSTYPTNATGTPGAARGSCPTTSGDPKTVESQSGSSYVTFSDIRVGPFNSTFSGGSSTGGSSTTTASGTTTTKASSTSTSSTSTGTGVAAHWGQCGGQGWTGPTTCASGTTCTVVNPYYSQCL
In the case of B3, in data set [1], the “Melting Temperature” value worked out at 68.7 °C. Also, in data set [6], the “% Residual Activity @ 60° C.” value was found to be 80%, the “% Residual Activity @ 65° C.” value amounted to 39%, the “% Residual Activity @ 70° C.” value is recorded as 51% and the “% Residual Activity @ 75° C.” value is 53%. Also, the “% Residual Activity @ 80° C.” value in data set [6] was 54%.

B4: SEQ ID NO:136: BD29555 CBH I variant: R273K, R422K (product tolerance) (protein)
chain: MSALNSFNMYKSALILGSLLATAGAQQIGTYTAETHPSLSWSTCKSGGSCTTNSGAITLDANWRWVHGVNTSTNCYTGNTWNTAICDTDASCAQDCALDGADYSGTYGITTSGNSLRLNFVTGSNVGSRTYLMADNTHYQIFDLLNQEFTFTVDVSHLPCGLNGALYFVTMDADGGVSKYPNNKAGAQYGVGYCDSQCPRDLKFIAGQANVEGWTPSSNNANTGLGNHGACCAELDIWEANSISEALTPHPCDTPGLSVCTTDACGGTYSSDKYAGTCDPDGCDFNPYRLGVTDFYGSGKTVDTTKPITVVTQFVTDDGTSTGTLSEIRRYYVQNGVVIPQPSSKISGVSGNVINSDFCDAEISTFGETASFSKHGGLAKMGAGMEAGMVLVMSLWDDYSVNMLWLDSTYPTNATGTPGAAKGSCPTTSGDPKTVESQSGSSYVTFSDIRVGPFNSTFSGGSSTGGSSTTTASGTTTTKASSTSTSSTSTGTGVAAHWGQCGGQGWTGPTTCASGTTCTVVNPYYSQCL
As for B4, the IC50 of cellobiose in data set [2] was greater than 25000 µg/mL. The “IC50, the half maximal inhibitory concentration of cellobiose” value in data set [3] was greater than 250 µg/mL. The CBHI activity decrease is reported as 22% in data set [4] (48 hours, when beta-glucosidase was added (so in the source)) and 14% in data set [4] (setting [7]). In addition, the “effect of the presence of cellobiose on activity” value in data set [4] (no beta-glucosidase added or gluconolactone added) was “less affected by the presence of cellobiose”.

B5: SEQ ID 91, 92: BD29555 CBH I variant: V401A, V494L (protein)
chain: MSALNSFNMYKSALILGSLLATAGAQQIGTYTAETHPSLSWSTCKSGGSCTTNSGAITLDANWRWVHGVNTSTNCYTGNTWNTAICDTDASCAQDCALDGADYSGTYGITTSGNSLRLNFVTGSNVGSRTYLMADNTHYQIFDLLNQEFTFTVDVSHLPCGLNGALYFVTMDADGGVSKYPNNKAGAQYGVGYCDSQCPRDLKFIAGQANVEGWTPSSNNANTGLGNHGACCAELDIWEANSISEALTPHPCDTPGLSVCTTDACGGTYSSDRYAGTCDPDGCDFNPYRLGVTDFYGSGKTVDTTKPITVVTQFVTDDGTSTGTLSEIRRYYVQNGVVIPQPSSKISGVSGNVINSDFCDAEISTFGETASFSKHGGLAKMGAGMEAGMVLVMSLWDDYSANMLWLDSTYPTNATGTPGAARGSCPTTSGDPKTVESQSGSSYVTFSDIRVGPFNSTFSGGSSTGGSSTTTASGTTTTKASSTSTSSTSTGTGLAAHWGQCGGQGWTGPTTCASGTTCTVVNPYYSQCL
B5: the “Melting Temperature” value in data set [1] is 73.6 °C. In data set [6], the “% Residual Activity @ 60° C.” value is on record as 96%, the “% Residual Activity @ 65° C.” value was found to be 92%, the “% Residual Activity @ 70° C.” value stood at 52% and the “% Residual Activity @ 75° C.” value is 61%. The “% Residual Activity @ 80° C.” value in data set [6] stood at 58%.
